Laboratory results published in the supplement of paper PMC4967469.
The IC50 comes from the fitted curve, where viability falls to half of the control; a limit (>, <) means that the fit lies beyond the doses tested. AUC is the area under the same curve over the 256-fold range up to the top dose, as a fraction; values near 1 show little effect. Any top dose called inferred is not printed in the source and was worked back from the curve model.

Experiments:
Assay in all cases: Viability of human cancer cell lines after 72 h of drug (GDSC screen)
[1] = compound: CNCc1ccc(-c2[nH]c3cc(F)cc4c3c2CCNC4=O)cc1 [AG-014699]; settings: top dose 5 µM; top dose inferred
Description: (§1)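 Human cancer cell lines in 384-well plates, medium with 10% serum, drug for 72 h over a 256-fold dose range (nine 2-fold or five 4-fold steps up to the top dose). Adherent lines were fixed and stained with the nucleic acid dye Syto60, suspension lines read with resazurin; signal relative to control wells, capped at 0 and 100%. One two-parameter sigmoid per drug and line, fitted in a mixed model over all curves with the slope shared within a line.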

[2] = compound: O=c1cc(CN2CCOCC2)occ1OCCCCCSc1ccnc2cc(C(F)(F)F)ccc12 [EHT 1864]; settings: top dose 10 µM; top dose inferred
Description: as §1

[3] = compound: C=CC(=O)Nc1cc(NC(=O)c2ccc(C)c(NC(=O)c3ccno3)c2)cc(C(F)(F)F)c1 [QL-XI-92]; settings: top dose 10.24 µM; top dose inferred
Description: as §1

[4] = compound: COc1cc2ncnc(Nc3cc(Br)c(O)c(Br)c3)c2cc1OC [WHI-P97]; settings: top dose 10.24 µM; top dose inferred
Description: as §1

[5] = compound: COc1cc2nccc(Oc3ccc(NC(=O)C4(C(=O)Nc5ccc(F)cc5)CC4)cc3)c2cc1OC [XL-184]; settings: top dose 5.12 µM; top dose inferred
Description: as §1

[6] = compound: O=c1cc(N2CCOCC2)oc2c(-c3cccc4c3sc3ccccc34)cccc12 [NU-7441]; settings: top dose 2 µM; top dose inferred
Description: as §1

[7] = compound: N=C(N)NC(=N)NCCc1ccccc1 [Phenformin]; settings: top dose 4000 µM; top dose inferred
Description: as §1

[8] = compound: CCC1=C[C@@H]2CN(C1)Cc1c([nH]c3ccccc13)[C@@](C(=O)OC)(c1cc3c(cc1OC)N(C)[C@H]1[C@@](O)(C(=O)OC)[C@H](OC(C)=O)[C@]4(CC)C=CCN5CC[C@]31[C@@H]54)C2 [Vinorelbine]; settings: top dose 0.064 µM; top dose inferred
Description: as §1

| Cell Line | AUC [1] | IC50 [1] [µM] | AUC [2] | IC50 [2] [µM] | AUC [3] | IC50 [3] [µM] | AUC [4] | IC50 [4] [µM] | AUC [5] | IC50 [5] [µM] | AUC [6] | IC50 [6] [µM] | AUC [7] | IC50 [7] [µM] | AUC [8] | IC50 [8] [µM] |
| --- | --- | --- | --- | --- | --- | --- | --- | --- | --- | --- | --- | --- | --- | --- | --- | --- |
| HLE (liver, adherent) | 0.956 | > 5 | 0.93 | > 10 | 0.971 | > 10.2 | 0.945 | > 10.2 | 0.934 | > 5.12 | 0.947 | > 2 | 0.963 | > 4000 | 0.646 | 0.00988 |
| HeLa (cervix, adherent) | 0.989 | > 5 | 0.97 | > 10 | 0.989 | > 10.2 | 0.981 | > 10.2 | 0.978 | > 5.12 | 0.989 | > 2 | 0.498 | 248 | 0.796 | 0.0285 |
| KM12 (large intestine, adherent) | 0.962 | > 5 | 0.936 | > 10 | 0.965 | > 10.2 | 0.983 | > 10.2 | 0.768 | 2.07 | 0.955 | > 2 | 0.481 | 221 | 0.463 | 0.00313 |
| LK-2 (lung squamous cell carcinoma, adherent) | 0.907 | > 5 | 0.959 | > 10 | 0.987 | > 10.2 | 0.967 | > 10.2 | 0.977 | > 5.12 | 0.988 | > 2 | 0.599 | 460 | 0.649 | 0.0101 |
| MFE-319 (endometrium, adherent) | 0.948 | > 5 | 0.959 | > 10 | 0.989 | > 10.2 | 0.982 | > 10.2 | 0.984 | > 5.12 | 0.976 | > 2 | 0.953 | > 4000 | 0.54 | 0.00511 |
| MKN1 (stomach, adherent) | 0.968 | > 5 | 0.974 | > 10 | 0.98 | > 10.2 | 0.948 | > 10.2 | 0.964 | > 5.12 | 0.937 | > 2 | 0.752 | 1390 | 0.653 | 0.0109 |
| NCI-H28 (mesothelioma, adherent) | 0.915 | > 5 | 0.908 | > 10 | 0.947 | > 10.2 | 0.97 | > 10.2 | 0.965 | > 5.12 | 0.935 | > 2 | 0.969 | > 4000 | 0.85 | > 0.064 |
| NCI-H520 (lung squamous cell carcinoma, adherent) | 0.96 | > 5 | 0.961 | > 10 | 0.885 | > 10.2 | 0.892 | > 10.2 | 0.855 | 4.3 | 0.959 | > 2 | 0.735 | 1200 | 0.421 | 0.00242 |
